Experimental data: PubChem BioAssay AID624417 (National Center for Advancing Translational Sciences (NCATS), 2012)
About 6,400 (1.6%) of roughly 410,000 compounds were called active. Inconclusive means that the source gave no clear call. Such entries were picked first, then a sample of the others. The call rests on the fitted dose curve; in most records, active means well fitted inhibition curve with a large enough effect; inconclusive means small, poorly fitted or top-dose-only effect; inactive means no such curve, though single readings can be large or run the other way. Potencies of inconclusive entries are left out as doubtful fits.

The compounds below were run against Glucagon-like peptide 1 receptor (Homo sapiens) (UniProt P43220) (assay: qHTS of GLP-1 Receptor Inverse Agonists (Inhibition Mode)). Conditions: HEK293 GLP-1R CRE-luciferase, luminescence, 24 h, GLP-1R form is constitutively active; activity change, negative = inhibition: at 38.3 µM (top of the series) unless noted.
Outline: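 Using stably transfected HEK293 (constitutively active GLP-1R, cAMP-luciferase reporter), compounds were incubated 24 hr and luciferase measured by luminescence.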
Further: nearly all actives have a fitted effect of over 55% in size.
On the % scale 0 is the no-effect control and ±100 the full control effect; potency means the concentration at half of the fitted maximal effect; tags describe the fitted curve by direction and shape.

UniProt P43220, sequence (P43220 whole entry, looked up): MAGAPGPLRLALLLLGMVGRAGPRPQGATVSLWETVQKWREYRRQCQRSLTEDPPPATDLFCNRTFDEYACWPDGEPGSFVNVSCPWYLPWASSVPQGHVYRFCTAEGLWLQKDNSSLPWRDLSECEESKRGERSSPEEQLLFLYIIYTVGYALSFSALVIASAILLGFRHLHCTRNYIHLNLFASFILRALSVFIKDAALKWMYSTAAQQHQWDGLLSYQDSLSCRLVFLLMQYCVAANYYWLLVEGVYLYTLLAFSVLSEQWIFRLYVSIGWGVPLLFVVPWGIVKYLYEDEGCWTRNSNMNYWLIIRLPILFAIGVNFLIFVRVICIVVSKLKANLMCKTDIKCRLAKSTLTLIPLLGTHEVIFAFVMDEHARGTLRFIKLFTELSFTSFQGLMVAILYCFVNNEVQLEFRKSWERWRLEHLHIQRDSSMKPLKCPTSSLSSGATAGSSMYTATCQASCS

Row | Compound | Potency | activity change, negative = inhibition
1 | CC(C)C(=O)Nc1cccc(-c2csc(-c3ccccc3)n2)c1 | inconclusive [inhibitor, single point] | 
2 | Cc1c(NC(=O)c2ccccc2)cc(C(C)C)c(O)c1S(=O)(=O)c1ccc(Cl)cc1 | inconclusive [inhibitor, single point] | 
3 | CCOCCCn1c(SCC(=O)NCCCOC)nc2c(sc3ccccc32)c1=O |  | inactive: 6.42%
4 | CC(C)CSC1=NSC2=NC(=O)/C(=C\c3cccs3)C(=N)N12 | inconclusive [inhibitor, single point] | 
5 | Cc1ccc(S(=O)(=O)/C(=C/Cl)NC(=O)c2ccccc2)cc1 | active: 10 µM | 
6 | OC[C@@H]1CN(Cc2ccc(-c3ccccc3)cc2)C[C@H](n2cnc3c(NCc4ccncc4)ncnc32)O1 | inconclusive [inhibitor, partial curve, poor fit] | 
7 | CCO[C@@H]1OC(C(=O)N2CCOCC2)=C[C@H](c2ccc(Br)cc2)[C@H]1CCCO | inconclusive [inhibitor, full curve] | 
8 | COc1ccccc1CCN=C(N)NS(=O)(=O)c1ccc(C)c(C)c1 | inconclusive [inhibitor, full curve, poor fit] | 
9 | C/C(CC(=O)Nc1ccc(Cl)cc1C(F)(F)F)=N\NC(N)=S | inconclusive [inhibitor, partial curve, poor fit] | 
10 | O=C1CC(N2CCN(Cc3ccc(Cl)cc3)CC2)C(=O)N1CCc1ccccc1 (stereo not given) | inconclusive [inhibitor, partial curve, poor fit] | 
11 | CC1=Nc2cc(C(=O)NC3CCCC3)ccc2Sc2ccc(Br)cc21 | inconclusive [inhibitor, full curve, poor fit] | 
12 | COc1ccc(NC(=O)c2ccccc2NS(=O)(=O)c2ccc(C)cc2)c([N+](=O)[O-])c1 | inconclusive [inhibitor, full curve, poor fit] | 
13 | COc1ccc(C(=O)NC(=S)N2CCN(c3ccccc3O)CC2)cc1 | inconclusive [inhibitor, full curve, poor fit] | 
14 | CCc1c(C)nc2ccc(Br)cc2c1SCCC#N | inconclusive [inhibitor, single point] | 
15 | COc1ccc(N2CCCC2)c(NC(=O)COc2ccccc2)c1 | inconclusive [inhibitor, single point] | 
16 | CCCCN(C1CCS(=O)(=O)C1)S(=O)(=O)c1ccc(C(C)C)cc1 (stereo not given) | inconclusive [inhibitor, single point] | 
17 | CN(C)c1ccc(NC(=O)Cn2c(=O)n(Cc3ccccc3)c(=O)c3ccccc32)cc1 | inconclusive [inhibitor, single point] | 
18 | COc1ccc2oc(C(=O)OCC(=O)N3CC(C)CC(C)C3)c(C)c2c1 (stereo not given) | inconclusive [inhibitor, partial curve, poor fit] | 
19 | Nc1nonc1-n1nnc(C(=O)N/N=C/c2ccoc2)c1CSc1ccc(Cl)cc1 | inconclusive [inhibitor, partial curve, poor fit] | 
20 | Cc1ccc2c(c1)c1c3n2CCN(C(=O)CN2CCN(C)CC2)C3CCC1 (stereo not given) | inconclusive [inhibitor, partial curve, poor fit] | 

Row | Compound | Potency | activity change, negative = inhibition
21 | CC(C)C[C@H](NC(=O)c1nc[nH]c1C(=O)N1CCNCC1)C(=O)OCc1ccccc1 |  | inactive: -6.53%
22 | CCOC(=O)C1CCN(c2nc3ccccc3n2CC(=O)c2ccccc2)CC1 | inconclusive [inhibitor, full curve] | 
23 | CN(Cc1c(C(=O)N/N=C/c2ccccc2F)nnn1-c1nonc1N)c1ccccc1 | inconclusive [inhibitor, partial curve] | 
24 | CS(=O)(=O)c1nc(S(=O)(=O)c2ccc(Cl)cc2)c(NCCN2CCOCC2)s1 |  | inactive: 6.61%
25 | COC(=O)c1cc(-c2ccc(C)cc2)n[nH]1 |  | inactive: 19.5%
26 | COc1ccc(-c2nc(S(=O)(=O)c3ccccc3)c(N3CCOCC3)o2)cc1 |  | inactive: -11.5%
27 | CCCN(CCC)CC(O)Cn1cc(/C=C/C(=O)c2ccccc2)c2ccccc21 (stereo not given) | inconclusive [inhibitor, partial curve, poor fit] | 
28 | CC(C)(C)C1CCC2(CC1)C(C#N)=C(SCC(=O)NC1CCCCC1)NC(=O)C2C#N (stereo not given) | active: 8.91 µM | 
29 | CC1CC(C)CN(c2cc(N(C)CCO)c([N+](=O)[O-])c3nonc23)C1 (stereo not given) |  | inactive: 0.883% [at 7.66 µM]
30 | Cc1nnc(SC(C)C(=O)c2c[nH]c3ccccc23)n1C1CC1 (stereo not given) |  | inactive: 20.7%
31 | O=C(CCn1cnc(-c2ccccc2)c1-c1ccccc1)N/N=C/c1ccc(O)cc1 | inconclusive [inhibitor, partial curve] | 
32 | Cc1ccc2nc(N3CCN(C(=O)c4ccc(F)cc4)CC3)c(C#N)cc2c1 | inconclusive [inhibitor, partial curve, poor fit] | 
33 | COc1ccc(-c2[nH]ncc2[C@@H]2C[C@H]3CN(Cc4ccccc4C)C(=O)[C@]34CCCN24)cc1 | inconclusive [inhibitor, single point] | 
34 | CC(O)CNCCOc1ccccc1-c1ccccc1 (stereo not given) | inconclusive [inhibitor, partial curve, poor fit] | 
35 | Cc1c(C2Nc3ccccc3NC3=C2C(=O)CC(C)(C)C3)cnn1C (stereo not given) |  | inactive: 1.08%
36 | CCCCCN1CC(=O)N2Cc3[nH]c4ccccc4c3C[C@H]2C1=O | inconclusive [inhibitor, partial curve, poor fit] | 
37 | O=C(O)c1cc(N/N=C/c2ccc(N3CCOCC3)cc2)ccc1Cl | inconclusive [inhibitor, single point] | 
38 | O=C(c1ccc([N+](=O)[O-])cc1)N1CCN(Cc2ccccc2[N+](=O)[O-])CC1 | inconclusive [inhibitor, partial curve, poor fit] | 
39 | O=C(Cc1ccccc1)N/N=C/c1ccc2cccc(O)c2n1 | inconclusive [inhibitor, partial curve, poor fit] | 
40 | O=C(CCCc1ccccc1)N1CCN(c2ccc([N+](=O)[O-])cc2)CC1 | inconclusive [inhibitor, single point] | 
